Measured values taken from the supplement of paper PMC8728848.
The list shows a part of the results.

Key:
Test in all cases: glycan array binding signal (z-score within array); higher = stronger binding
Details in all cases: glycan notation: IUPAC condensed, linker removed
[1] = target: Neu5Ac(a2-6)GlcNAc(b1-4)GlcNAc
Summary of the method: (§1)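 The binding signal is a Z-score computed within each array. Data were drawn from 3228 arrays in the Consortium for Functional Glycomics database, restricted to those with a known protein sequence. Scores were averaged over arrays of the same protein sequence at different concentrations or buffers, and over linkers, and negative values can be taken as non-binding.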

[2] = target: Neu5Ac(a2-6)GlcNAc(b1-4)GlcNAc(b1-4)GlcNAc
Summary of the method: as §1

[3] = target: Neu5Ac(a2-8)Neu5Ac
Summary of the method: as §1

[4] = target: Neu5Ac(a2-8)Neu5Ac(a2-3)Gal(b1-3)GalNAc(b1-4)[Neu5Ac(a2-3)]Gal(b1-4)Glc
Summary of the method: as §1

[5] = target: Neu5Ac(a2-8)Neu5Ac(a2-3)Gal(b1-3)GalNAc(b1-4)[Neu5Ac(a2-8)Neu5Ac(a2-3)]Gal(b1-4)Glc
Summary of the method: as §1

[6] = target: Neu5Ac(a2-8)Neu5Ac(a2-3)Gal(b1-4)Glc
Summary of the method: as §1

[7] = target: Neu5Ac(a2-8)Neu5Ac(a2-3)Gal(b1-4)GlcNAc
Summary of the method: as §1

[8] = target: Neu5Ac(a2-8)Neu5Ac(a2-3)[Gal(b1-3)GalNAc(b1-4)]Gal(b1-4)Glc
Summary of the method: as §1

[9] = target: Neu5Ac(a2-8)Neu5Ac(a2-3)[GalNAc(b1-4)]Gal(b1-4)Glc
Summary of the method: as §1

[10] = target: Neu5Ac(a2-8)Neu5Ac(a2-8)Neu5Ac
Summary of the method: as §1

[11] = target: Neu5Ac(a2-8)Neu5Ac(a2-8)Neu5Ac(a2-3)Gal(b1-4)Glc
Summary of the method: as §1

[12] = target: Neu5Ac(a2-8)Neu5Ac(a2-8)Neu5Ac(a2-3)[Gal(b1-3)GalNAc(b1-4)]Gal(b1-4)Glc
Summary of the method: as §1

[13] = target: Neu5Ac(a2-8)Neu5Ac(a2-8)Neu5Ac(a2-3)[GalNAc(b1-4)]Gal(b1-4)Glc
Summary of the method: as §1

[14] = target: Neu5Ac(a2-8)Neu5Ac(a2-8)Neu5Ac(a2-8)Neu5Ac(a2-3)[GalNAc(b1-4)]Gal(b1-4)Glc
Summary of the method: as §1

[15] = target: Neu5Ac(a2-8)Neu5Gc(a2-3)Gal(b1-4)GlcNAc
Summary of the method: as §1

[16] = target: Neu5Ac(b2-6)Gal(b1-4)GlcNAc
Summary of the method: as §1

[17] = target: Neu5Ac(b2-6)GalNAc
Summary of the method: as §1

[18] = target: Neu5Ac9Ac(a2-3)Gal(b1-3)GlcNAc
Summary of the method: as §1

[19] = target: Neu5Ac9Ac(a2-3)Gal(b1-4)GlcNAc
Summary of the method: as §1

[20] = target: Neu5Ac9Ac(a2-6)Gal(b1-4)GlcNAc
Summary of the method: as §1

[21] = target: Neu5Gc(a2-3)Gal(b1-3)GlcNAc
Summary of the method: as §1

[22] = target: Neu5Gc(a2-3)Gal(b1-3)[Fuc(a1-4)]GlcNAc
Summary of the method: as §1

[23] = target: Neu5Gc(a2-3)Gal(b1-4)Glc
Summary of the method: as §1

[24] = target: Neu5Gc(a2-3)Gal(b1-4)GlcNAc
Summary of the method: as §1

[25] = target: Neu5Gc(a2-3)Gal(b1-4)GlcNAc(b1-3)Gal(b1-4)GlcNAc(b1-2)Man(a1-3)[Neu5Gc(a2-3)Gal(b1-4)GlcNAc(b1-3)Gal(b1-4)GlcNAc(b1-2)Man(a1-6)]Man(b1-4)GlcNAc(b1-4)GlcNAc
Summary of the method: as §1

[26] = target: Neu5Gc(a2-3)Gal(b1-4)[Fuc(a1-3)]GlcNAc
Summary of the method: as §1

[27] = target: Neu5Gc(a2-6)Gal(b1-4)GlcNAc
Summary of the method: as §1

[28] = target: Neu5Gc(a2-6)GalNAc
Summary of the method: as §1

[29] = target: Neu5Gc(a2-8)Neu5Ac(a2-3)Gal(b1-4)GlcNAc
Summary of the method: as §1

[30] = target: Neu5Gc(a2-8)Neu5Gc(a2-3)Gal(b1-4)GlcNAc
Summary of the method: as §1

[31] = target: Neu5Gc(a2-8)Neu5Gc(a2-3)Gal(b1-4)GlcNAc(b1-3)Gal(b1-4)GlcNAc
Summary of the method: as §1

[32] = target: Neu5Gc(a2-8)Neu5Gc(a2-6)Gal(b1-4)GlcNAc
Summary of the method: as §1

[33] = target: Neu5Gc(b2-6)Gal(b1-4)GlcNAc
Summary of the method: as §1

B1: DrGal9 (Danio rerio) (protein)
chain: MAFYQQPPYYNPRIPFSGPIQGGLQDGKSIIISGRVLPGANRFHVNLQCGSHSEANVALHFNPRYEDTDYVVNNSYLNRTWGSEERKYESPFAQGQTFTLQILVAQDKYKISTNGRHFMDYKHRIPFTQVDTVAVEGMVEVNSVAFQNPAGFIPPQAGYAPQYAVPPGCGFPAFPSAPNYTIPHKTVMNGGLHPGKNIVINGVVNPNAKSIIFNLCYRSGIAFHYNPRFDENVVVRNTNQMEKWGAEERFGGLPFHKGQPFQVTISCNPQHYNVFVNGKQEHTYKHRYTKLNDIDILEICGDLQLTSVQA
glycan array binding signal (z-score) [1]: -0.357
glycan array binding signal (z-score) [2]: -0.385
glycan array binding signal (z-score) [3]: -0.399
glycan array binding signal (z-score) [4]: -0.398
glycan array binding signal (z-score) [5]: 0.017
glycan array binding signal (z-score) [6]: -0.374
glycan array binding signal (z-score) [7]: -0.152
glycan array binding signal (z-score) [8]: -0.326
glycan array binding signal (z-score) [9]: -0.393
glycan array binding signal (z-score) [10]: -0.392
glycan array binding signal (z-score) [11]: -0.362
glycan array binding signal (z-score) [12]: -0.404
glycan array binding signal (z-score) [13]: -0.388
glycan array binding signal (z-score) [14]: -0.417
glycan array binding signal (z-score) [15]: -0.251
glycan array binding signal (z-score) [16]: -0.398
glycan array binding signal (z-score) [17]: -0.403
glycan array binding signal (z-score) [18]: -0.093
glycan array binding signal (z-score) [19]: -0.244
glycan array binding signal (z-score) [20]: -0.379
glycan array binding signal (z-score) [21]: -0.32
glycan array binding signal (z-score) [22]: -0.383
glycan array binding signal (z-score) [23]: -0.343
glycan array binding signal (z-score) [24]: -0.233
glycan array binding signal (z-score) [25]: 0.69
glycan array binding signal (z-score) [26]: -0.351
glycan array binding signal (z-score) [27]: -0.336
glycan array binding signal (z-score) [28]: -0.407
glycan array binding signal (z-score) [29]: -0.305
glycan array binding signal (z-score) [30]: -0.224
glycan array binding signal (z-score) [31]: -0.161
glycan array binding signal (z-score) [32]: -0.399
glycan array binding signal (z-score) [33]: -0.411
